Data on 45 compounds can be found in paper PMC4336329 (PLoS ONE, 2015).

Out of some 310,000 compounds screened, about 2,200 (0.71%) showed an effect of 50% or more. The effect is printed as a negative number. The list shows a part of the results.

The test deals with human ether-à-go-go-related gene (hERG) potassium channel (human, UniProt Q12809). As to the kind of experiment: primary screen, population patch clamp on CHO cells stably expressing hERG.
Sequence of human ether-à-go-go-related gene (hERG) potassium channel (Q12809 whole entry, looked up): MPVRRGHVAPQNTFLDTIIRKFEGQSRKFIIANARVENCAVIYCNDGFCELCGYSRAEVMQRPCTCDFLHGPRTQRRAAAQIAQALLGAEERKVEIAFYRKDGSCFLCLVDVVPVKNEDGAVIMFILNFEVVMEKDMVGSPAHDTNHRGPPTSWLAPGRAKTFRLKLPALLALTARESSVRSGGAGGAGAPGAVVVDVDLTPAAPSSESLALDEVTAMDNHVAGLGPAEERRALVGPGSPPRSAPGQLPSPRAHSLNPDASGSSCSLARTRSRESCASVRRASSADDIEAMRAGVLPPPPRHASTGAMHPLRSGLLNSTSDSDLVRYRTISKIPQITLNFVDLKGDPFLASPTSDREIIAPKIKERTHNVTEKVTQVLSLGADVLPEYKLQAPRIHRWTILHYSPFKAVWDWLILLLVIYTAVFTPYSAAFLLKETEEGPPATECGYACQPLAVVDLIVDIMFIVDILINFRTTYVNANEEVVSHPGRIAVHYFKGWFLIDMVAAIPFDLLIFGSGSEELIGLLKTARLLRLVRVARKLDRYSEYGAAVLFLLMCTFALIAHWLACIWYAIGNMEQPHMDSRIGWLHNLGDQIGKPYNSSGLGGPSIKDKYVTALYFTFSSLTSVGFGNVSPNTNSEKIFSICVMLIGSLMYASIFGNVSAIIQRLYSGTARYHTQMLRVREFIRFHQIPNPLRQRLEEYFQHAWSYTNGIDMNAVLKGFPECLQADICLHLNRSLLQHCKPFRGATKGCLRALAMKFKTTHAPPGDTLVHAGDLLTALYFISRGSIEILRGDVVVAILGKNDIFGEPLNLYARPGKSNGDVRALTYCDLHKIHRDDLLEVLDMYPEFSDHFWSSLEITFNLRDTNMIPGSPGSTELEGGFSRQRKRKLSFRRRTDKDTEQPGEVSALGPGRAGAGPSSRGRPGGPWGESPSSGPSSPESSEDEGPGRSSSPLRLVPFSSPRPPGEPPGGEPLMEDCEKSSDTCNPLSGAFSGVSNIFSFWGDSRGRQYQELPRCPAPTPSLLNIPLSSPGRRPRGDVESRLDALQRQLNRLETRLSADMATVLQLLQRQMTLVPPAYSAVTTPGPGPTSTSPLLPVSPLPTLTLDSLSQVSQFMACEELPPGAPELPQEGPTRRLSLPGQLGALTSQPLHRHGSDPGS
In the case of `O=C1c2cccnc2C(=O)N1Cc1ccc(S(=O)(=O)N2CCN(c3ccccc3)CC2)cc1`, the “hERG current change (%, negative = inhibition) at 1uM” value is given as 14.8%. For the compound `Br.CCCn1c(=N)n(CC(=O)c2ccc(Cl)c(Cl)c2)c2ccccc21`, the “hERG current change (%, negative = inhibition) at 1uM” value was -17.7%. Consider `Cc1ccc(NC(=O)Nc2cccc([N+](=O)[O-])c2)cc1F`, for which the “hERG current change (%, negative = inhibition) at 1uM” value was 7.26%. Consider `Nc1nnnn1/N=C\c1ccc(Cl)c([N+](=O)[O-])c1`, for which the “hERG current change (%, negative = inhibition) at 1uM” value worked out at 9.04%.

Regarding `COc1ccc(/C=C/C(=O)Nc2nc(C)c(C(=O)N(C)C)s2)cc1OC`, the “hERG current change (%, negative = inhibition) at 1uM” value was 8.77%.

On to `O=C(Cn1c(=O)c2cccn2c2cccnc21)N1CCN(c2ccc(Cl)cc2)CC1`, for which the “hERG current change (%, negative = inhibition) at 1uM” value was -7.62%. As to `COc1ccc2nc3ccccc3nc2c1NC(=O)c1ccc(Cl)cc1Cl`, the “hERG current change (%, negative = inhibition) at 1uM” value was 17.5%. The value for `Cc1ccc(NC(=O)c2cnc(N3CCN(c4ccccn4)CC3)c3ccccc23)c(Br)c1` was 18.2%; that for `O=C(NNc1cc(Cl)ccc1Cl)c1cccs1` was 23.1%; that for `CCc1cc2c(SCC(=O)Nc3ncc(Cl)c(C)c3Cl)ncnc2s1` was 6.51%.

Regarding `C=CCN(C(=O)c1csnn1)C(C(=O)NC1CCCCC1)c1ccccc1` (stereo not drawn), the “hERG current change (%, negative = inhibition) at 1uM” value came out at 7.13%. To `COc1cccc(OCC(O)CN2CC(C)CC(C)C2)c1.Cl` (stereo not drawn) belongs -1.59%.

Turning to `COc1ccc(S(=O)(=O)Nc2cc3c(C(C)=O)c(C)oc3c3ccccc23)cc1`, the “hERG current change (%, negative = inhibition) at 1uM” value is given as 0.727%.

As to `Cc1ccc(NC(=O)Cn2cc(C(F)(F)F)cc(Cl)c2=O)cc1S(=O)(=O)N1CCCCC1`, the “hERG current change (%, negative = inhibition) at 1uM” value is reported as -20.6%.

On to `O=C(COC(=O)c1ccc([N+](=O)[O-])s1)NC(c1ccccc1)c1ccccc1`, for which the “hERG current change (%, negative = inhibition) at 1uM” value was found to be 12.4%. On to `Cc1nn(CCO)c2ncc(C(=O)c3cc(F)ccc3O)cc12`, for which the “hERG current change (%, negative = inhibition) at 1uM” value was determined as 17.3%. To `CC(C)CN(CC(C)C)C(=O)CN1C(=O)NC2(CCc3ccccc3C2)C1=O` (stereo not drawn) belongs 10.4%; to `CCCc1nn(CCc2ccccn2)c(N)c1CC`, 5.78%.

In the case of `COCCCNC(=O)C1Cc2cc(S(=O)(=O)N3CCCC3)ccc2N1C(C)=O` (stereo not drawn), the “hERG current change (%, negative = inhibition) at 1uM” value came to 8.15%.

Take `CCC(C)n1c(SC(C)C#N)nc2ccccc2c1=O` (stereo not drawn): the “hERG current change (%, negative = inhibition) at 1uM” value was found to be 8.97%.

Turning to `CCCCC(CC)CNC(=O)c1ccc2c(c1)OCO2` (stereo not drawn), the “hERG current change (%, negative = inhibition) at 1uM” value stood at 3.31%.

In the case of `Cc1cccc(N2CCN(C(=O)n3ccnc3)CC2)c1C`, the “hERG current change (%, negative = inhibition) at 1uM” value is -3.02%. For the compound `COc1cc(Br)c(C(C)NC(=O)c2ccccc2)cc1OC` (stereo not drawn), the “hERG current change (%, negative = inhibition) at 1uM” value is reported as 6.56%. In the case of `O=c1cc(NCc2ccccc2)[nH]c(=O)[nH]1`, the “hERG current change (%, negative = inhibition) at 1uM” value amounted to 13.8%. For the compound `CN(Cc1cnccn1)C(=O)CC1C(=O)NCCN1Cc1ccc(F)cc1Cl` (stereo not drawn), the “hERG current change (%, negative = inhibition) at 1uM” value is reported as 14.7%. To `COc1ccc2[nH]c3nc(SCC(=O)NNC(=O)c4ccc(OC)c(OC)c4)nnc3c2c1` belongs 10.3%.

Turning to `OCC[C@@H]1C[C@@H](O)[C@H](O)[C@]2(Cc3ccccc3CO2)O1`, the “hERG current change (%, negative = inhibition) at 1uM” value came out at 15.3%. The value for `O=C(CN1CCN(c2ccc(F)cc2)CC1)Nc1cc(C(F)(F)F)ccc1Cl` was 0.892%; that for `COc1ccc(CNC(=O)C2CCCN(S(=O)(=O)c3c(C)nn(C)c3C)C2)cc1` (stereo not drawn) was 15.5%; that for `CCn1cnc2cc(NCc3ccc(N(C)C)cc3)ccc21` was 17.2%.

For `COC(=O)C1(S(=O)(=O)c2ccc(C)cc2)CCOCC1`, the “hERG current change (%, negative = inhibition) at 1uM” value is on record as -2.88%.

On to `Cc1onc(-c2ccccc2Cl)c1C(=O)c1ccccc1`, for which the “hERG current change (%, negative = inhibition) at 1uM” value was 5.83%.

For `Oc1ccc(-c2n[nH]c(=S)n2Cc2ccco2)cc1`, the “hERG current change (%, negative = inhibition) at 1uM” value is 2.33%. `O=c1oc2c(O)c(O)cc3c(=O)oc4c(O)c(O)cc1c4c23`: the “hERG current change (%, negative = inhibition) at 1uM” value was 11.6%. The value for `CC(C)CC(=O)NC(Nc1ccc([N+](=O)[O-])cc1)C(Cl)(Cl)Cl` (stereo not drawn) was -1.21%. The value for `O=C(Cc1cccs1)N1CCN(C(=O)C2CCCO2)CC1` (stereo not drawn) was 11.5%. `CC(Sc1nc(N)cc(=O)[nH]1)C(=O)Nc1cccc(Cl)c1` (stereo not drawn): the “hERG current change (%, negative = inhibition) at 1uM” value amounted to 9.37%. The value for `CC(=O)N1CCc2cc(S(=O)(=O)N3CC(C)CC(C)C3)ccc21` (stereo not drawn) was 15.8%; that for `Cc1cc(Cl)ccc1OCC(=O)N1CC(C)CC(C)C1` (stereo not drawn) was 6.83%. To `COc1cc2c(c(OC)c1OC)-c1ccc(OC)c(=O)cc1C(NC(C)=O)CC2` (stereo not drawn) belongs 5.83%; to `COc1ccc(OC)c(NC(=O)CCCN2C(=O)C3C4C=CC(C4)C3C2=O)c1` (stereo not drawn), 6.71%. The value for `O=C(C1CCCCC1)N1CCCn2c1nc1ccccc12` was 10.8%; that for `COc1ccc(Nc2c(C)cccc2C)cc1` was 11.9%. For `CCOC(CC(=O)NNC(=O)c1c(-c2ccccc2Cl)noc1C)OCC`, the “hERG current change (%, negative = inhibition) at 1uM” value was 16.9%. To `CCOC(=O)c1nn(-c2ccccc2)c2nc(Nc3ccccc3)cc(=O)n12` belongs 5.22%.
